# Laboratory results taken from the supplement of paper PMC10338343.
# ± gives the standard deviation. Only a part is listed here, and it is no random draw.
# Tested on: MIWI (PIWIL1) piRISC loaded with piRNA #1 (30 nt)
# Assay: pre-steady-state target cleavage rate (min^-1); MIWI and MILI are mouse PIWI proteins and EfPiwi is from a freshwater sponge; tags in brackets are library labels; higher = faster piRNA-guided slicing of the target
# Settings: guide: piRNA #1 5'p-UGAGGUAGUAGGUUGUAUAGUAUCCAGAGG; auxiliary factor: 500 nM mouse GTSF1
# Method in brief: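 In Cleave-'n-Seq, a transcribed, DNA-blocked target RNA library (0.1 nM) was combined with 1 nM active affinity-purified piRISC bearing one synthetic guide, with or without 500 nM GTSF1 partner protein. Reactions ran in HEPES–potassium acetate buffer at 33 °C for 0–8 or 0–960 min. Uncleaved targets were sequenced and normalised to depth and to weakly complementary targets, three trials were pooled, and k3 was capped at 0.0001 min^-1. The pre-steady-state cleavage rate was obtained by fitting a burst-and-steady-state model.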
row,Sequence,pre-steady-state target cleavage rate
1,GGACUGGAUAGUAUACAACCUACAACCUCA,0.383 ± 0.041
2,GGAGAGGAUACAAUACAACCUACUAGCUCA,0.374 ± 0.041
3,GGACUGGAUACUAUACUACCAACUACCUCA,0.0216 ± 0.0039
4,GGAGACCUAACUAUUCAACCUACUACGUCA,0.223 ± 0.035
5,GGAGACGAUACUAUACAAGCUACUACCUCA,1.15 ± 0.053
6,GGAGUGGAUACUAUACAACCCACUACCUCA,0.505 ± 0.029
7,GGAGAGGAUUCUAUACAACCUUCUACCUCA,0.578 ± 0.03
8,GGAGACCUUACUAUACAACCUACUACCGCA,1.5 ± 0.1
9,GGAGACGAUACUUUACUACCUACUACCUCA,0.861 ± 0.078
10,GGAGACCUAACUAUACAACCUACUACCUAA,0.955 ± 0.1
11,GGAGACCAUACUAUACAACCUACUAGGACA,0.00558 ± 0.0042
12,GGAGACCUAUGAUAUGUACCUACUCCCUCA,< 0.0001
13,GGAGACCUUACUAUACAACCUACUAACUCA,1.01 ± 0.06
14,GGAGAGGAUACUUUACAACCUACUUCCUCA,0.195 ± 0.063
15,GGAGACCUAUCUAUACCACCUACUACCUCA,0.316 ± 0.026
16,GGUCUGGAUACUAUACAACCUACGACCUCA,0.462 ± 0.041
17,GCUCUGGAUACUUUACAACCUACUUCCUCA,0.246 ± 0.033
18,GCUCUGGAAACUAUACAACCUACUUCCUCA,0.296 ± 0.041
19,GGUCUGGAUACUUUACAACCUACAACCUCA,0.102 ± 0.02
20,GGAGAGGAUACUAAAGAACCUACUACCUCA,1.23 ± 0.079
21,GCUCUGCAUACUAUACAACCUACAACCUCA,1.37 ± 0.12
22,GGAGACCUAACUAUACAACCUACUUCCUCA,0.265 ± 0.042
23,GGAGUGGAUACUAUAAACCUACUACCUCA,0.8 ± 0.094
24,GGAGACCAUACUAUACAACGUACAACCUCA,0.161 ± 0.03
25,CCUCAGGAAACUAUACAACCUACUACCUCA,2.04 ± 0.1
26,GGAGUGGAUACUAUACAAGCUACUAGCUCA,0.173 ± 0.025
27,GGAGACGAAACUAUACAACCUACUACCUGA,0.708 ± 0.12

row,Sequence,pre-steady-state target cleavage rate
1,GCUCUGGAUACUAUACAACCUUCUACCUCA,0.663 ± 0.033
2,GGACUGGAUACUAUACAACCUUCUACGUCA,0.072 ± 0.015
3,GCUCUGGAAACUAAACAACCUACUACCUCA,1.56 ± 0.11
4,GGAGACGAACUAUACAACCUACUACCUCA,1.27 ± 0.088
5,GGACUCGAUACUAUAGAACCUACUACCUCA,1.46 ± 0.098
6,CCUCUGGAUACUAUACAACCUACUAGCUCA,1.32 ± 0.11
7,GGACUGCAUACUAUACAACCUACUACCUGA,0.496 ± 0.1
8,GGAGACCAUACUAUACAAGCUUCUACCUCA,0.112 ± 0.011
9,GGUCUGGAUACUAUACAACCAACUACCACA,0.112 ± 0.012
10,GGAGACCUAACAAUACAACCUUCUACCUCA,0.00738 ± 0.0048
11,GGAGACCUAACUAUACAACCUACAACGUCA,0.143 ± 0.042
12,GGAGAGGAUACUAUACAACGUACUAGCUCA,0.055 ± 0.014
13,GGAGACCUUACUAUACAUCCUACUACCACA,0.745 ± 0.05
14,GGAGUGCAUACUAUACAACCUACUAGCUCA,0.162 ± 0.026
15,GGAGACCAUACUAUACAACCUACUACGUGA,0.532 ± 0.048
16,GGAGUGGAUACUAUACAUCCUACUACGUCA,0.0715 ± 0.01
17,GGAGACCUAACUACACAACCUACUACCUCA,0.96 ± 0.13
18,GCUCAGGAUACUAUACAACCUACUACCUGA,0.681 ± 0.042
19,GGAGUGGAUACUAGUACAACCUACUACCUCA,1.29 ± 0.078
20,GGAGACCUAACUAUACACCCUACUACCUCA,0.745 ± 0.07
21,CCUCUGGAUACUAGACAACCUACUACCUCA,1.72 ± 0.098
22,GGAGACCUAUCUAUACAACCUACUUCGUCA,0.0335 ± 0.0088
23,GGAGUGCAUACUAUACAACCUAGUACCUCA,0.467 ± 0.038
24,GGAGACCAUACUAUACAACCUACUACCCCA,0.915 ± 0.081
25,GGAGAGGAUACAAUACAACCUACUACGUCA,0.391 ± 0.03
26,GCUCUGGAUACUAUACAACCUACAUCCUCA,0.689 ± 0.043
27,GGAGACCAUACGAUACAACCUACUACCUCA,1.53 ± 0.12
